Hit rate of the full screen: of about 3,200 compounds, about 300 (9.4%) showed activity. Only a part is listed here, and it is no random draw.
Tested on: A673/TR/shEF
Assay: cell viability (LOESS-normalised, relative to median of negative controls) (log2 ratio); higher = more viable cells (less compound effect), active = hit call of the paper (over 3 MAD below the median)
Conditions: treatment time: 72 h
Outline: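 A673/TR/shEF Ewing sarcoma cells were plated at 1,500 per well in 384-well plates and cultured with or without doxycycline, added 24 h before compounds, to induce EWS-FLI1 shRNA knockdown. Library compounds at two or more concentrations, alongside DMSO controls, were applied for three days. Cell viability was measured by CellTiter-Glo luminescence on an Envision reader. Readings were LOESS-corrected per plate, divided by the median of negative controls and log2-transformed, and hits were wells lying at least three median absolute deviations from the median of all screened wells.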

[1] = 0.25 µM, library screen: screen2, EWS-FLI1 expression: high (no doxycycline)
[2] = 0.25 µM, library screen: screen2, EWS-FLI1 expression: low (doxycycline-induced shRNA knockdown)
[3] = 2.5 µM, library screen: screen2, EWS-FLI1 expression: high (no doxycycline)
[4] = 2.5 µM, library screen: screen2, EWS-FLI1 expression: low (doxycycline-induced shRNA knockdown)
[5] = 0.25 µM, library screen: screen1, EWS-FLI1 expression: high (no doxycycline)
[6] = 0.25 µM, library screen: screen1, EWS-FLI1 expression: low (doxycycline-induced shRNA knockdown)
[7] = 2.5 µM, library screen: screen1, EWS-FLI1 expression: high (no doxycycline)
[8] = 2.5 µM, library screen: screen1, EWS-FLI1 expression: low (doxycycline-induced shRNA knockdown)
[9] = 0.103 µM, library screen: screen3, EWS-FLI1 expression: high (no doxycycline)
[10] = 0.103 µM, library screen: screen3, EWS-FLI1 expression: low (doxycycline-induced shRNA knockdown)
[11] = 0.308 µM, library screen: screen3, EWS-FLI1 expression: high (no doxycycline)
[12] = 0.308 µM, library screen: screen3, EWS-FLI1 expression: low (doxycycline-induced shRNA knockdown)
[13] = 0.926 µM, library screen: screen3, EWS-FLI1 expression: high (no doxycycline)
[14] = 0.926 µM, library screen: screen3, EWS-FLI1 expression: low (doxycycline-induced shRNA knockdown)
[15] = 2.8 µM, library screen: screen3, EWS-FLI1 expression: high (no doxycycline)
[16] = 2.8 µM, library screen: screen3, EWS-FLI1 expression: low (doxycycline-induced shRNA knockdown)
[17] = 8.3 µM, library screen: screen3, EWS-FLI1 expression: high (no doxycycline)
[18] = 8.3 µM, library screen: screen3, EWS-FLI1 expression: low (doxycycline-induced shRNA knockdown)
[19] = 25 µM, library screen: screen3, EWS-FLI1 expression: high (no doxycycline)
[20] = 25 µM, library screen: screen3, EWS-FLI1 expression: low (doxycycline-induced shRNA knockdown)

Measured: cell viability (log2)

CCC(NC(C)C)C(O)c1ccc(O)c(O)c1 (stereo not drawn)
inactive: [1] 0.115 | [2] 0.155 | [3] 0.102 | [4] 0.0162

CCC(Cc1c(I)cc(I)c(N)c1I)C(=O)O (stereo not drawn)
inactive: [5] 0.0938 | [6] 0.0028 | [7] 0.0894 | [8] 0.0528

CN(C)c1ccc(O)c2c1C[C@H]1C[C@H]3[C@H](N(C)C)C(=O)C(C(N)=O)=C(O)[C@@]3(O)C(=O)C1=C2O
active: [5] -0.177 | [7] -0.0936
inactive: [6] -0.0588 | [1] 0.0664 | [2] 0.133 | [8] 0.0344 | [3] 0.00725 | [4] 0.0554

CN1CCc2cccc3c2[C@H]1Cc1ccc(O)c(O)c1-3
inactive: [5] 0.0695 | [6] 0.146 | [1] 0.198 | [2] 0.075 | [7] 0.158 | [8] 0.349 | [3] 0.00124 | [4] 0.0354

C[C@]12CCC3c4ccc(OC(=O)CCC(=O)O)cc4CCC3C1CCC2=O (stereo partly drawn)
inactive: [5] 0.126 | [6] 0.0832 | [7] 0.102 | [8] 0.0823

C[C@]12CC[C@@H]3c4ccc(O)cc4CC[C@H]3[C@@H]1CC[C@@H]2OC(=O)CCC1CCCC1
active: [5] -0.302

CO[C@@]1(NC(=O)CSCC#N)C(=O)N2C(C(=O)O)=C(CSc3nnnn3C)CS[C@@H]21
inactive: [5] 0.154 | [6] -0.106 | [1] 0.158 | [2] 0.135 | [7] 0.0644 | [8] 0.14 | [3] 0.171 | [4] 0.0931

COc1ccc2[nH]c(I)c(CCNC(C)=O)c2c1
inactive: [1] 0.187 | [2] 0.0791 | [3] 0.155 | [4] 0.127

C[C@@H]1[C@H](O)[C@@H](C)/C=C/C=C/C=C/C=C/C=C/C=C/C=C/[C@H](O[C@@H]2O[C@H](C)[C@@H](O)[C@H](N)[C@@H]2O)C[C@@H]2O[C@](O)(C[C@@H](O)C[C@@H](O)[C@H](O)CC[C@@H](O)C[C@@H](O)CC(=O)O[C@H]1C)C[C@H](O)[C@H]2C(=O)O
inactive: [5] 0.127 | [6] 0.0173 | [7] 0.193 | [8] 0.107

CC(N)=NCCCC[C@@H](N)C(=O)O
inactive: [1] 0.115 | [2] 0.025 | [3] 0.097 | [4] 0.0427

CCOC(=O)C(C)(C)Oc1ccc(Cl)cc1
inactive: [9] 0.206 | [10] 0.0599 | [5] 0.214 | [6] 0.14 | [1] 0.131 | [2] 0.176 | [11] 0.148 | [12] 0.147 | [13] 0.109 | [14] 0.0982 | [7] 0.23 | [8] 0.0959 | [3] 0.11 | [4] 0.0389 | [15] 0.139 | [16] 0.076 | [17] 0.136 | [18] 0.0942 | [19] 0.0815 | [20] 0.129

c1cnc2c(c1)ccc1cccnc12
inactive: [1] 0.203 | [2] 0.155 | [3] -0.0425 | [4] 0.185

CC(C)NC[C@H](O)COc1ccc(CC(N)=O)cc1
inactive: [1] 0.0989 | [2] 0.138 | [3] 0.14 | [4] 0.111

C=C1C2CC[C@@]3(C)[C@H](c4ccoc4)OC(=O)C[C@]13O[C@H]1CC(O)C(C)(C)C(CC(=O)OC)[C@@]21C (stereo partly drawn)
inactive: [5] 0.0702 | [6] 0.0804 | [7] 0.102 | [8] 0.0526

Brc1ccc([C@H]2CN3CCSC3=N2)cc1
inactive: 0.025 µM, library screen: screen1, EWS-FLI1 expression: high (no doxycycline) 0.216 | 0.025 µM, library screen: screen1, EWS-FLI1 expression: low (doxycycline-induced shRNA knockdown) 0.000942 | [5] 0.234 | [6] 0.105 | [1] -0.0213 | [2] 0.123 | [8] -0.0691 | [3] 0.117 | [4] 0.109
active: [7] -0.357 | 25 µM, library screen: screen1, EWS-FLI1 expression: high (no doxycycline) -0.468 | 25 µM, library screen: screen1, EWS-FLI1 expression: low (doxycycline-induced shRNA knockdown) -0.309

C=CC[C@H](N)C(=O)O
inactive: [1] 0.0719 | [2] 0.157 | [3] 0.0838 | [4] 0.116

O=C(O)c1ccccc1Nc1ccccc1
inactive: [1] -0.0398 | [2] 0.068 | [3] 0.0734 | [4] 0.0692

C/C=C/C1=C(C(=O)O)N2C(=O)[C@@H](NC(=O)[C@H](N)c3ccc(O)cc3)[C@H]2SC1
inactive: [9] 0.0139 | [10] -0.0264 | [11] 0.0206 | [12] 0.0411 | [13] 0.0707 | [14] 0.0681 | [15] 0.0633 | [16] 0.0434 | [17] 0.0512 | [18] 0.0505 | [19] 0.0519 | [20] 0.0834

From the supplement of paper PMC6089552
